From PubChem BioAssay AID445 (National Center for Advancing Translational Sciences (NCATS), 2006)
Out of some 110,000 compounds screened, about 40 (0.04%) were called active. The shares of active, inactive and inconclusive entries below differ from those in the screen. The call rests on the fitted dose curve; in most records, active means well fitted curve in the direction sought with a large enough effect in the signal ratio (not every such curve was filed as active); inconclusive means small, poorly fitted or top-dose-only effect, or a change in a side signal; inactive means flat fitted curve, though single readings scatter; the % refers to the signal ratio. Where the call is inconclusive, the potency comes from a doubtful curve fit.
Potency means the concentration at half of the fitted maximal effect.

Test: IkB Signaling;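 on IkBa stabilization activation: 0% = basal untreated cells and 100% = reference inhibitor full response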
Conditions: ABC-DLBCL IkBa-CBG/CBR dual luciferase ratio (green luciferase fused to IkBa over red control in OCI-Ly3 lymphoma cells), 4 h; IkBa stabilization activation: at 57.1 µM (top of the series), scaled: untreated 0%, proteasome inhibitor 100% unless noted
Source text: NIH Molecular Libraries Screening Centers Network [MLSCN]
NIH Chemical Genomics Center [NCGC]
Nuclear factor kappa-B (NF-kappa-B) plays an important role in normal B cell development and survival. Diffuse large B cell lymphoma (DLBCL) is the most commonly observed type of non-Hodgkin's lymphoma. Gene expression analysis has identified an activated B cell-like subtype of DLBCL (ABC-DLBCL) which expresses known NF-kappa-B target genes. […] However, targets upstream of IKK have been largely unexplored and so nodes upstream of IKK in the NF-kappa-B pathway remain untested due to the lack of chemical probes.
A cell-sensor assay for I-kappa-B-alpha stabilization was developed with NIH investigator Dr. R. Eric Davis in Dr. Louis M. Staudt's laboratory. The assay uses green (CBG68) and red (CBR) emitting beetle luciferases [Chroma-Glo(TM) developed by Promega Corp.] where the green luciferase is fused to I-kappa-B-alpha and the red luciferase is present in its native state. Both luciferase genes are stably present in the OCI-Ly3 human ABC DLBCL cell line, but their expression is under the control of tetracycline-inducible promoters. Following the addition of doxycycline to induce expression of the luciferases, the green luminescence in control cultures rises only slowly because the CBG fusion partner I-kappa-B-alpha is targeted by IKK activity for rapid degradation. In contrast, green luminescence rises rapidly in the presence of proteasome inhibitors or IKK inhibitors. The rise in red luminescence of CBR is not affected by proteasome or IKK inhibitors, and serves as normalization for cell number and nonspecific effects. Compounds were screened as a concentration-titration series that ranged from 57 uM to 0.7 nM.
NCGC Assay Protocol Summary:
Cells were seeded in 1536-well plates at 5000 cells/3ul in IMDM medium containing 0.5% FBS, w/o phenol red, L-glutamine, 25 mM HEPES, 3 mg/ml sodium bicarbonate. After centrifugation for 1 min. at 1000 rpm, 23 nl of compounds or DMSO were delivered to each well using a pin tool. Then 1ul 80ng/ml doxycycline was dispensed into white solid 1536-well plates and the plates were incubated at 37C/5% C02 in a cell incubator for 4 hrs. Then 4 ul Chroma-Glo luminescent substrate mix (Promega) was added to each well. The plate was incubated at R.T. for 10-15 min. The plates were measured on a ViewLux plate reader for green luminescence (540/20 nm filter) and red luminescence (618/8 nm filter). The green and red luminescent signals were corrected for red and green luminescence filter overlap using previously determined filter calibration constants (determined using the procedure outlined in the Promega Technical Manual). The %Activity was determined from the ratio of corrected green/red luminescent values. Green luminescent and ratio %Activity was determined by normalizing to the difference in signal between basal cells (0% Activity) and cells incubated with 10 uM of the proteasome inhibitor MG-132 (100% Activity). Red luminescent %Activity was normalized to the difference between red luminesence in basal cells (0%Activity) and zero luminescence (-100% Activity).
Concentration-response curves were fitted to the signals arising from the green luminescence (I-kappa-B-alpha-luciferase fusion; IkB-luc) and the red luminescence (unfused luciferase; luc) as well as the calculated ratio. The concentration-effect curves were then classified based on curve quality (r2), response magnitude and degree of measured activity. Compounds were then categorized based on their concentration-response curves for all three datasets (Ikb-luc, luc and ratio).
Keywords: IKK, I-kappa-B, IkB, IkBa, cytotoxicity, luminescence, MLSMR, MLSCN, NIH Roadmap, qHTS, NCGC
With COc1ccc(-c2noc(CCC(=O)Nc3ccc4c(c3)OCCO4)n2)cc1 the IkBa stabilization activation was inconclusive: 1.78% [signal inhibitor]. In the case of O[C@@H](COc1ccc(Cl)cc1Cl)CN1CCCC1, the IkBa stabilization activation is reported as inactive: 0.53% [at 11.4 µM, scaled: untreated 0%, proteasome inhibitor 100%]. For Cc1nc(Nc2ccc(Cl)cc2)cc(-c2ccccc2)n1, the IkBa stabilization activation was inconclusive: 0.271% [signal inhibitor]. For O=c1c2cn[nH]c2nc(SCc2cccc(Br)c2)n1-c1ccc(Cl)cc1, the IkBa stabilization activation was inconclusive: -5.9% [signal inhibitor]. With COc1ccccc1CNC(=O)NCc1noc2ccc(C)cc12 the IkBa stabilization activation was inconclusive: 2.55% [signal inhibitor]. For Nc1nc2sc3c(c2c(=O)s1)CCCC3, the IkBa stabilization activation was “inactive”. With COc1ccc(CNC(=O)c2nc(SC(C)C)ncc2Cl)cc1 the IkBa stabilization activation was inconclusive: 4.07% [signal inhibitor]. For O=C(CSc1nnc(COc2ccccc2)n1Cc1ccco1)Nc1ccc2c(c1)OCCO2, the IkBa stabilization activation was “inactive”. In the case of COCCCNC(=O)c1sc2nc3n(c(=O)c2c1C)CCC3, the IkBa stabilization activation is reported as inconclusive: 0.441% [signal inhibitor]. With O=C(Nc1ccc(F)cc1)N1CCC(c2nc3c(nnn3Cc3cccc(Cl)c3)c(=O)[nH]2)CC1 the IkBa stabilization activation was inconclusive: 6.21% [signal inhibitor]. With CC(=O)Nc1nonc1-c1nnc(SCC(=O)Nc2ccccc2)n1-c1ccccc1 the IkBa stabilization activation was inconclusive: 4.2% [signal inhibitor]. With COC(=O)CSc1nnc2n(C3CCCCC3)c(=O)c3c4c(sc3n12)CCCC4 the IkBa stabilization activation was inconclusive: 8.25% [signal inhibitor]. With CCCCOc1ccc(CNC(=O)c2ccc(NC(=O)N3CCCCc4ccccc43)cc2)cc1 the IkBa stabilization activation was inconclusive: 2.54% [signal inhibitor]. With CCOC(=O)Cn1c(=O)n(CC2CCCO2)c2nc(-c3cccc(C)c3)nc(C(N)=O)c21 (stereo not drawn) the IkBa stabilization activation was inconclusive: 1.26% [signal inhibitor]. In the case of CC1(C)CC(=O)C2=C(C1)OC(N)=C(C#N)C2C#Cc1ccccc1 (stereo not drawn), the Potency is reported as inconclusive: 31.6 µM [rising, single point]. With COC(=O)c1ccc(-n2c(CCC(=O)O)ccc2-c2ccc(C)cc2)cc1 the IkBa stabilization activation was inconclusive: -9.61% [signal inhibitor]. In the case of Cc1ccc(C)c(N2CCN(Cc3nnc(-c4ccc5c(c4)OCO5)o3)CC2)c1, the IkBa stabilization activation is reported as inconclusive: 9.24% [signal inhibitor]. For CCC(=O)N1c2ccccc2CC1C(=O)NCCN1CCN(c2cccc(C(F)(F)F)c2)CC1 (stereo not drawn), the IkBa stabilization activation was inconclusive: 2.34% [signal inhibitor]. In the case of Cc1cc(Nc2ccc(C(C)C)cc2)n2ncnc2n1, the IkBa stabilization activation is reported as “inactive”. With Cc1ccccc1CSc1nc2cc(C(=O)NC3CCCC3)ccc2c(=O)n1Cc1ccccc1 the IkBa stabilization activation was inconclusive: 4.14% [signal inhibitor]. For Cc1ccc(O)c(NC(=O)c2ccc(Br)c(S(=O)(=O)N3CCCCC3)c2)c1, the IkBa stabilization activation was inconclusive: -4.85% [signal inhibitor]. For CCC(c1nnnn1C1CCCCC1)N(Cc1ccco1)Cc1cc2ccc(OC)cc2[nH]c1=O (stereo not drawn), the IkBa stabilization activation was inconclusive: 1.47% [signal inhibitor]. For C#C[C@@]1(O)CC[C@@H]2[C@@H]3CCC4=CC(=O)CC[C@@H]4[C@H]3CC[C@]21C, the IkBa stabilization activation was “inactive”. For CCCSc1ccc2nc(NC(=O)OC)[nH]c2c1, the IkBa stabilization activation was inconclusive: 12% [signal activator] [at 25.6 µM, scaled: untreated 0%, proteasome inhibitor 100%]. For Cc1cc2c(c(=O)n1CCc1ccccc1)C(C(C)C)C(C#N)=C(N)O2 (stereo not drawn), the IkBa stabilization activation was “inactive”. In the case of CC1CCN(C(=O)CSc2c(C(C)C)cnc3c2c(=O)n(C)c(=O)n3C)CC1, the IkBa stabilization activation is reported as “inactive”. For Cc1ccc(-n2nc(CO)c(C(=O)NC(C)CCCc3ccccc3)n2)cc1C (stereo not drawn), the IkBa stabilization activation was inconclusive: -0.151% [signal inhibitor]. In the case of Cc1ccc(C)c2[nH]c(=O)c(CN(Cc3nnnn3C3CCCCC3)CC3CCCO3)cc12 (stereo not drawn), the IkBa stabilization activation is reported as inconclusive: 4.3% [signal inhibitor]. For COc1ccc(C)cc1NC(=O)Cn1c(=O)cc(C)c2c(C)nn(C)c21, the IkBa stabilization activation was inconclusive: 1.66% [signal inhibitor]. With Cc1cc2cc(C(c3nnnn3Cc3ccco3)N3CCc4ccccc43)c(=O)[nH]c2cc1C (stereo not drawn) the IkBa stabilization activation was inconclusive: 5.93% [signal inhibitor]. In the case of COC(=O)C1=C(N)Oc2cc(N(C)C)ccc2C1c1ccccc1OC (stereo not drawn), the Potency is reported as inconclusive: 20 µM [rising, partial curve]. For O=c1[nH]cc(CS(=O)(=O)Cc2c[nH]c(=O)[nH]c2=O)c(=O)[nH]1, the IkBa stabilization activation was inactive: 1.26% [at 11.4 µM, scaled: untreated 0%, proteasome inhibitor 100%]. For Nn1c(SCC(=O)N2CCCc3ccccc32)nnc1-c1ccc(Cl)cc1, the IkBa stabilization activation was inconclusive: 0.471% [signal inhibitor]. With COc1cccc(CNC(=O)c2ccc3c(c2)nnn3C2CCCC2)c1 the IkBa stabilization activation was inconclusive: -0.674% [signal inhibitor]. For COc1ccc(C(=O)Oc2c(CN3CCOCC3)cc(Cl)c3cccnc23)cc1, the IkBa stabilization activation was “inactive”. For CCCCSCCCNC(=O)c1cn(C)c2ccc(S(=O)(=O)N3CCCCC3)cc2c1=O, the IkBa stabilization activation was “inactive”. For COc1ccccc1C(=O)Nc1nnc(SCc2cc(=O)c3cc(Cl)ccc3[nH]2)s1, the IkBa stabilization activation was inconclusive: 5.8% [signal inhibitor]. For Cc1ccc(C)c(N2CCN(C(=O)C3CCCN(S(=O)(=O)c4cccc5nsnc45)C3)CC2)c1 (stereo not drawn), the IkBa stabilization activation was inconclusive: 8.25% [signal inhibitor]. For COCn1c(-c2ccc(OC)c(OC)c2)nc2ccccc21, the IkBa stabilization activation was “inactive”. With O=C(CCC1N=C2c3ccccc3N=C(SCc3ccc(Cl)cc3)N2C1=O)NCCc1ccccc1 (stereo not drawn) the IkBa stabilization activation was inconclusive: -0.19% [signal inhibitor]. In the case of Fc1ccc(C(NCCc2ccc(Cl)cc2)c2nnc(-c3ccccc3)o2)c(Cl)c1 (stereo not drawn), the IkBa stabilization activation is reported as inconclusive: 13.3% [signal inhibitor]. In the case of COc1cccc(C(=O)NCC2CCN(c3ccc(S(=O)(=O)N4CCOCC4)cc3)CC2)c1, the IkBa stabilization activation is reported as inconclusive: 1.4% [signal inhibitor]. With Cc1c(NC(=O)Nc2ccc(Br)cc2F)sc2nc3n(c(=O)c12)CCC(C)CC3 (stereo not drawn) the IkBa stabilization activation was inconclusive: -1.68% [signal inhibitor]. In the case of CC(=O)NCC(c1ccc2c(c1)OCO2)N1CCN(c2ccccc2)CC1 (stereo not drawn), the IkBa stabilization activation is reported as “inactive”. With CCn1c2ccccc2c2nnc(SCc3ccc(C(=O)OC)o3)nc21 the IkBa stabilization activation was inconclusive: 8.29% [signal inhibitor]. For CCc1ccc(-n2c(=O)c3c(C)c(C)sc3n(CC(=O)NCc3ccc(C)cc3)c2=O)cc1, the IkBa stabilization activation was “inactive”. With CCOC(=O)c1ccc(NC(=O)/C(C#N)=C/c2ccc(OC)cc2)cc1 the Potency was inconclusive: 2 µM [signal inhibitor]. With CCCCc1nn2c(=O)cc(COC(=O)c3cccc(NC(=O)CCc4ccccc4)c3)nc2s1 the Potency was inconclusive: 15.8 µM [signal inhibitor, partial curve]. In the case of O=S(=O)(NCc1nc2cccnc2n1Cc1ccccc1)c1ccc2c(c1)CCCC2, the IkBa stabilization activation is reported as inconclusive: 0.899% [signal inhibitor]. With CCOC(=O)C1=C(N)OC2=C(C(=O)CC(C)(C)C2)C1c1ccco1 (stereo not drawn) the IkBa stabilization activation was “inactive”. With COc1cc(C2/C(=C(\O)c3ccc4c(c3)CC(C)O4)C(=O)C(=O)N2CCCn2ccnc2)ccc1O (stereo not drawn) the IkBa stabilization activation was “inactive”. For Cc1ccccc1NC(=O)N1CCc2c(sc3c2CCCC3)C1c1ccccc1 (stereo not drawn), the IkBa stabilization activation was inconclusive: -0.198% [signal inhibitor]. In the case of CCn1c(NCc2ccc(OC)cc2)nc2ccccc21, the IkBa stabilization activation is reported as inconclusive: 1.31% [signal inhibitor]. In the case of CC(C)C(c1nnnn1Cc1ccco1)N1CCN(c2nc3ccccc3s2)CC1 (stereo not drawn), the IkBa stabilization activation is reported as “inactive”. In the case of CCCCCn1cc2c(c1-c1ccc(Br)cc1)c(=O)n(C)c(=O)n2C, the IkBa stabilization activation is reported as inconclusive: 4.39% [signal inhibitor]. For COc1ccc(OC)c(NC(=O)c2cc3cc(C)ccc3n2C)c1, the IkBa stabilization activation was inconclusive: -0.86% [signal inhibitor]. With O=C(Cn1c(=O)oc2cc(Cl)ccc21)Nc1cccc(C(F)(F)F)c1 the IkBa stabilization activation was “inactive”. For COc1cccc(NC(=O)Cn2nnc(-c3nc(-c4ccccc4)no3)c2N)c1, the IkBa stabilization activation was inconclusive: 9.07% [signal inhibitor]. With CCSc1nnc(NC(=O)CSc2ncccn2)s1 the Potency was inconclusive: 10 µM [signal inhibitor, partial curve]. For COc1ccc(CCNC(=O)Cn2c(=O)nc(-c3ccccc3)c3ccccc32)cc1OC, the IkBa stabilization activation was “inactive”. For COc1ccc(N(CC(=O)NCc2ccccc2Cl)S(=O)(=O)c2c(C)nn(C)c2C)cc1, the IkBa stabilization activation was “inactive”. With CCOc1ccc(C(=O)c2cn(CC(=O)Nc3ccc(F)cc3)c3cc4c(cc3c2=O)OCO4)cc1 the IkBa stabilization activation was inconclusive: 12% [signal inhibitor]. With CCOc1ccccc1CNC(=O)CCCn1ncn2c(cc3occc32)c1=O the IkBa stabilization activation was inconclusive: -0.0645% [signal inhibitor]. With Cc1nn(CC(=O)Nc2ccccc2C(F)(F)F)c(=O)c2cccn12 the IkBa stabilization activation was inconclusive: -0.789% [signal inhibitor]. With COC(=O)C1=C(C)Nc2nc(-c3ccccc3)nn2C1c1ccc(C)o1 (stereo not drawn) the IkBa stabilization activation was inconclusive: 8.13% [signal inhibitor]. In the case of Cc1ccccc1NC(=O)Nc1nnc(N2CCCCCC2)s1, the IkBa stabilization activation is reported as inconclusive: 1.03% [signal inhibitor]. In the case of Cc1cc(C)c(C)c(OCC(=O)Nc2ccc(S(=O)(=O)Nc3nc(C)cc(C)n3)cc2)c1, the IkBa stabilization activation is reported as inconclusive: 3.54% [signal inhibitor]. In the case of O=C(CS(=O)CC(=O)N(CC(=O)NC1CCCC1)C1CCCCC1)Nc1ccc(F)cc1 (stereo not drawn), the IkBa stabilization activation is reported as inconclusive: 11.4% [signal inhibitor].
